Here are results for 78 molecules from the supplement of paper PMC9588766.

Structures can show the parent of a compound that is named as a salt. ± gives the standard deviation of the averaged measurements. In all, about 2,000 compounds were measured (“cell viability relative to DMSO control (compound alone)”: median about 0.98, lowest 2% from about 0.23 on). This is one part of the list.

This test concerns PDC-DUC18828. Description: cell viability relative to DMSO control (compound alone) (fraction); PDC-DUC18828 is a patient-derived cholangiocarcinoma cell line; higher = less growth inhibition. The note with it: 1 µM; 72 h. The method, then:
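Selleck Bioactive library screen in the patient-derived FGFR2-G3BP2 fusion-positive ICC cell line PDC-DUC18828 (500 cells/well). Each compound was tested at 1 uM alone, in triplicate, for 72 h. Viability was read by CellTiter-Glo and normalised to plate DMSO controls.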
Molecule `Cc1cccc(-c2[nH]c(C(C)(C)C)nc2-c2ccc3nccnc3c2)n1` gave a cell viability of 1.09 ± 0.058. `CN1CCN(CCCNc2ncc(Cl)c(-c3cc4c(C(=O)NC5CC5)cccc4s3)n2)CC1` had a cell viability of 0.928 ± 0.053. Then `NC(=O)c1noc([C@H](CCCC2CCCCC2)CC(=O)NO)n1`, with 0.97 ± 0.056; and `CCn1c(=O)c(-c2ccc(-c3cncs3)cc2Cl)cc2cnc(Nc3ccc(N4CCN(C)CC4)cc3)nc21`, with 0.934 ± 0.056. Then `Cc1cnc(Nc2ccc(N3CCN(C)CC3)cc2)nc1Nc1cccc(S(=O)(=O)NC(C)(C)C)c1`, with 0.782 ± 0.06. `OC[C@@H](O)[C@@H](O)CO` [Erythritol] gave a cell viability of 0.995 ± 0.045. Regarding `CC(C)CCN1c2nc(Nc3cc(F)c(O)c(F)c3)ncc2N(C)C(=O)C1C` (stereo not drawn), the cell viability was 0.793 ± 0.051. Molecule `O=C1NC(=O)/C(=C/c2ccc(-c3ccc(F)cc3O)o2)S1` had a cell viability of 1.03 ± 0.019.

The molecule `O=C(O[C@@H]1Cc2c(O)cc(O)cc2O[C@@H]1c1cc(O)c(O)c(O)c1)c1cc(O)c(O)c(O)c1` [(-)-Epigallocatechin Gallate] returned a cell viability of 1.05 ± 0.05. Molecule `CC(C)C[C@H](NC(=O)CNC(=O)c1cc(Cl)ccc1Cl)B(O)O` yielded a cell viability of 0.0177 ± 0.0044.

`COC(=O)c1ccc2c(c1)NC(=O)/C2=C(\Nc1ccc(N(C)C(=O)CN2CCN(C)CC2)cc1)c1ccccc1` [Nintedanib (BIBF 1120)] came in with a cell viability of 0.892 ± 0.024. Then `N#C[C@@H]1CCCN1C(=O)CNC12CC3CC(CC(O)(C3)C1)C2` [Vildagliptin (LAF-237)], with 0.886 ± 0.048; and `CCN(CC)CCN(Cc1ccc(-c2ccc(C(F)(F)F)cc2)cc1)C(=O)Cn1c(SCc2ccc(F)cc2)nc(=O)c2c1CCC2`, with 0.896 ± 0.079. `CCOc1ccn(-c2ccc(F)cc2)c(=O)c1C(=O)Nc1ccc(Oc2ccnc(N)c2Cl)c(F)c1` had a cell viability of 1.05 ± 0.03. `Cc1nc(Nc2n[nH]c3c2CN(C(=O)N[C@H](CN(C)C)c2ccccc2)C3(C)C)c2sccc2n1`: the cell viability worked out at 0.532 ± 0.012.

`CNC[C@H](O)c1cccc(O)c1` [Phenylephrine HCl] gave a cell viability of 0.954 ± 0.058. The molecule `N[C@@H]1CN(c2c(F)cc3c(=O)c(C(=O)O)cn([C@@H]4C[C@@H]4F)c3c2Cl)CC12CC2` [Sitafloxacin Hydrate] showed a cell viability of 1.08 ± 0.014. Consider `Cc1cc(N2CCOCC2)ccc1Nc1nc(NC2CCCCC2)c2[nH]cnc2n1`, for which the cell viability was 0.745 ± 0.03. With `C[C@H](NC(=O)Cc1cc(F)cc(F)c1)C(=O)N[C@@H]1C(=O)N(C)c2ccccc2-c2ccccc21`, the cell viability came to 0.969 ± 0.031. Take `O=C(O)c1ccc(Nc2ncc3c(n2)-c2ccc(Cl)cc2C(c2c(F)cccc2F)=NC3)cc1`: the cell viability worked out at 0.482 ± 0.031. Molecule `OCc1ccc(-c2ccc(-c3ccc(CO)s3)o2)s1` had a cell viability of 0.963 ± 0.038. Then `O=c1c(-c2ccc(O)cc2)coc2cc(O)cc(O)c12` [Genistein], with 0.997 ± 0.029. In turn, `CSc1cccc(Nc2ncc3cc(-c4c(Cl)cccc4Cl)c(=O)n(C)c3n2)c1` had a cell viability of 0.966 ± 0.069. With `C=CCc1ccc(O)c(-c2ccc(O)c(CC=C)c2)c1` [Honokiol], the cell viability was determined as 0.985 ± 0.017. Molecule `CNC(=C[N+](=O)[O-])NCCSCc1ccc(CN(C)C)o1` [Ranitidine] yielded a cell viability of 1.04 ± 0.024.

On to `COc1cc2c(cc1OC)-c1cc3ccc(OC)c(OC)c3c[n+]1CC2` [Palmatine chloride], for which the cell viability was 0.918 ± 0.074. Molecule `COC(=O)[C@H]1[C@H]2C[C@@H]3c4[nH]c5cc(OC)ccc5c4CCN3C[C@H]2C[C@@H](OC(=O)c2cc(OC)c(OC)c(OC)c2)[C@@H]1OC` [Reserpine] came in with a cell viability of 1.07 ± 0.085. Regarding `Cc1nc(C)c(Cl)c(O)c1Cl` [Clopidol], the cell viability stood at 1.1 ± 0.057. Regarding `CCN(CC)CCCC(C)Nc1c2ccc(Cl)cc2nc2ccc(OC)cc12` (stereo not drawn) [Quinacrine 2HCl], the cell viability was 1.01 ± 0.025. As to `O=C(O)P(=O)(O)O` [Foscarnet Sodium], the cell viability is 1.04 ± 0.023. The molecule `CC(C)(C)NS(=O)(=O)c1cncc(-c2cc(F)c3nc(N)nn3c2)c1` registered a cell viability of 0.924 ± 0.01. Consider `CNc1ncc2cc(-c3cc(NC(=O)NCCC(C)(C)C)c(F)cc3C)c(C)nc2n1`, for which the cell viability was 0.634 ± 0.03. `COc1cc(C=O)ccc1O` [Vanillin] displayed a cell viability of 0.884 ± 0.035. The molecule `C1=N/C2=N/c3ccc(OCCN4CCCC4)c(c3)COC/C=C/COCc3cccc(c3)C(=C1)N2` [Pacritinib (SB1518)] displayed a cell viability of 0.881 ± 0.055. Take `CN(C)C(=O)c1ccc(S(=O)(=O)c2ccc(NC(=O)[C@@](C)(O)C(F)(F)F)c(Cl)c2)cc1`: the cell viability turned out to be 0.943 ± 0.07. For the molecule `C#C[C@]1(O)CC[C@H]2[C@@H]3CCc4cc(OC)ccc4[C@H]3CC[C@@]21C` [Mestranol], the cell viability is 1.08 ± 0.03. Molecule `CC(C)NCC(O)c1ccc(NS(C)(=O)=O)cc1` (stereo not drawn) [Sotalol] came in with a cell viability of 1.03 ± 0.044. In the case of `CC(=O)N1CCN(c2ccc(OCC3COC(Cn4ccnc4)(c4ccc(Cl)cc4Cl)O3)cc2)CC1` (stereo not drawn) [Ketoconazole], the cell viability was determined as 0.96 ± 0.039.

Turning to `CN(CCOc1ccc(NS(C)(=O)=O)cc1)CCc1ccc(NS(C)(=O)=O)cc1` [Dofetilide], the cell viability was found to be 1.03 ± 0.05. Turning to `Cc1[nH]c(/C=C2\C(=O)Nc3ccccc32)c(C)c1CCC(=O)O` [TSU-68 (SU6668, Orantinib)], the cell viability was found to be 0.972 ± 0.04. Then `CO[C@H]1C[C@@H]2CC[C@@H](C)[C@@](O)(O2)C(=O)C(=O)N2CCCC[C@H]2C(=O)O[C@H]([C@H](C)C[C@@H]2CC[C@@H](O)[C@H](OC)C2)CC(=O)[C@H](C)/C=C(\C)[C@@H](O)[C@@H](OC)C(=O)[C@H](C)C[C@H](C)/C=C/C=C/C=C/1C` [Rapamycin (Sirolimus)], with 0.636 ± 0.01. For the molecule `N[C@@H]1CCCN(c2c(/C=C3\SC(=O)NC3=O)cccc2-c2ccccc2)C1`, the cell viability worked out at 0.901 ± 0.096. With `COc1cc2ncnc(Nc3ccc(Cl)cc3F)c2cc1OC`, the cell viability came to 0.9 ± 0.042.

Molecule `N#Cc1ccc2[nH]c(O)c(-c3ccc(CN4CCOCC4)cn3)c2c1` gave a cell viability of 1.14 ± 0.082.

For `Oc1ccc(Nc2nc(-c3ccc(Cl)cc3)cs2)cc1`, the cell viability turned out to be 0.947 ± 0.053. The molecule `O=C(CCCCCCNC(=O)c1cnc(N(c2ccccc2)c2ccccc2)nc1)NO` [Rocilinostat (ACY-1215)] came in with a cell viability of 0.939 ± 0.049.

As to `O=c1ncccn1[C@@H]1O[C@H](CO)[C@@H](O)[C@H]1O` [Zebularine], the cell viability is 0.981 ± 0.025. `NC(CO)(CO)CO` [Trometamol] showed a cell viability of 1.08 ± 0.032.

`Clc1ccc(C(Cn2ccnc2)OCc2c(Cl)cccc2Cl)c(Cl)c1` (stereo not drawn) [Isoconazole nitrate]: the cell viability came to 0.929 ± 0.086. The figure for `CNc1nc(Nc2cnn([C@H]3CCN(C4COC4)C[C@@H]3F)c2Cl)ncc1C(F)(F)F` is 0.942 ± 0.072. Molecule `NC(=O)N1c2ccccc2C=Cc2ccccc21` [Carbamazepine] displayed a cell viability of 0.883 ± 0.029. Then `CC(C)n1nc(-c2cc3cc(O)ccc3[nH]2)c2c(N)ncnc21`, with 0.347 ± 0.013; and `O=c1cc(-c2ccc(O)cc2)oc2cc(O)cc(O)c12` [Apigenin], with 1.02 ± 0.083; and `CO[C@H]1/C=C/O[C@@]2(C)Oc3c(C)c(O)c4c(c3C2=O)C2=NC3(CCN(CC(C)C)CC3)NC2=C(NC(=O)/C(C)=C\C=C\[C@H](C)[C@H](O)[C@@H](C)[C@@H](O)[C@@H](C)[C@H](OC(C)=O)[C@@H]1C)C4=O` [Rifabutin], with 0.932 ± 0.034.

`C[C@@H](N)[C@H]1CC[C@H](C(=O)Nc2ccncc2)CC1` displayed a cell viability of 1.11 ± 0.05. Take `COc1ccc(-c2cc(=O)c3c(O)cc(O)cc3o2)cc1O` [Diosmetin]: the cell viability was 0.967 ± 0.04. `CN1CC[C@H](c2c(O)cc(O)c3c(=O)cc(-c4ccccc4Cl)oc23)[C@H](O)C1` [Flavopiridol HCl] returned a cell viability of 0.271 ± 0.024. As to `CN1CC[C@H](c2c(O)cc(O)c3c(=O)cc(-c4ccccc4Cl)oc23)[C@H](O)C1` [Flavopiridol (Alvocidib)], the cell viability came to 0.257 ± 0.024.

Consider `Nc1nc(Cl)nc2c1ncn2[C@@H]1O[C@H](CO)[C@@H](O)[C@@H]1F` [Clofarabine], for which the cell viability is 0.23 ± 0.0086. Molecule `O=C1CN2Cc3c(ccc(Cl)c3Cl)N=C2N1` [Anagrelide HCl] showed a cell viability of 0.97 ± 0.051.

Turning to `CN(C)Cc1c(C(=O)NCCOc2ccc(C(=O)NO)cc2)oc2ccccc12`, the cell viability worked out at 0.927 ± 0.016.

In turn, `O=c1[nH]c(=O)n(C2CC(O)C(CO)O2)cc1Br` (stereo not drawn) [Bromodeoxyuridine (BrdU)] showed a cell viability of 1 ± 0.035. In turn, `CC[C@H]1OC(=O)[C@H](C)[C@@H](O[C@H]2C[C@@](C)(OC)[C@@H](O)[C@H](C)O2)[C@H](C)[C@@H](O[C@@H]2O[C@H](C)C[C@H](N(C)C)[C@H]2O)[C@](C)(O)C[C@@H](C)/C(=N\OCOCCOC)[C@H](C)[C@@H](O)[C@]1(C)O` [Roxithromycin] displayed a cell viability of 0.975 ± 0.043. Then `CC(=O)N1c2ccc(-c3ccc(C(=O)O)cc3)cc2[C@H](Nc2ccc(Cl)cc2)C[C@@H]1C`, with 0.588 ± 0.041; and `Nc1nc(F)nc2c1ncn2[C@@H]1O[C@H](CO)[C@@H](O)[C@@H]1O` [Fludarabine], with 1.02 ± 0.059. In turn, `O=C(NCCS(=O)(=O)c1ccc(C(F)(F)F)cn1)c1ccc(Cl)cc1` had a cell viability of 1.02 ± 0.049. Molecule `CC(C)CC(=O)Nc1n[nH]c2c1CN(C(=O)C1CCN(C)CC1)C2(C)C` registered a cell viability of 0.909 ± 0.042. For `CCOC(=O)[C@H](CCc1ccccc1)N[C@H]1CCc2ccccc2N(CC(=O)O)C1=O` [Benazepril HCl], the cell viability was 1.07 ± 0.061.

In the case of `Cn1cc(-c2ccc(F)c(C(F)(F)F)c2)nc1C1CCN(c2ncnc3[nH]ncc23)CC1`, the cell viability was 0.957 ± 0.046. In turn, `O=C(Nc1c[nH]nc1-c1nc2ccc(CN3CCOCC3)cc2[nH]1)NC1CC1` had a cell viability of 0.532 ± 0.03. In the case of `COC1=C(OC)C(=O)C(CCCCCCCCCCO)=C(C)C1=O` [Idebenone], the cell viability came to 1.06 ± 0.017.

Molecule `COc1cc(OC)c2c(=O)[nH]c(-c3cc(C)c(OCCO)c(C)c3)nc2c1` showed a cell viability of 0.972 ± 0.032.

With `O=C(c1cccc(Cl)c1F)N1CCN(Cc2cccc(Nc3nccs3)n2)CC1`, the cell viability is 0.364 ± 0.032. For `CC(C)[C@H]1C(=O)N[C@@H](CCCNC(=N)N)C(=O)NCC(=O)N[C@@H](CC(=O)O)C(=O)N[C@H](Cc2ccccc2)C(=O)N1C` [Cilengitide], the cell viability came out at 0.97 ± 0.022.

`O=C(Nc1cccc2c(=O)cc(-c3nnn[nH]3)oc12)c1ccc(OCCCCc2ccccc2)cc1` [Pranlukast] yielded a cell viability of 0.924 ± 0.049. For the molecule `Cc1ccc(C(=O)Nc2ccc(CN3CCN(C)CC3)c(C(F)(F)F)c2)cc1C#Cc1cnc2cccnn12`, the cell viability came to 0.258 ± 0.013.

As for `CC(C)(C)NC[C@H](O)COc1nsnc1N1CCOCC1` [Timolol Maleate], the cell viability was 0.984 ± 0.025.

`N#Cc1ccc(-c2c(-c3ncn[nH]3)sc(N3CCOCC3)c2C#N)c(F)c1` displayed a cell viability of 0.71 ± 0.023.
